Source: the supplement of paper PMC12217912
Some of the results follow. Sequences were assembled here from the parent chain. Values near 0.05 are background.

B1: TEV protease; numbered along this chain (parent)
chain: MGESLFKGPRDYNPISSSICHLTNESDGHTTSLYGIGFGPFIITNKHLFRRNNGTLVVQSLHGVFKVKDTTTLQQHLVDGRDMIIIRMPKDFPPFPQKLKFREPQREERICLVTTNFQTKSMSSMVSDTSCTFPSGDGIFWKHWIQTKDGQCGSPLVSTRDGFIVGIHSASNFTNTNNYFTSVPKNFMELLTNQEAQQWVSGWRLNADSVLWGGHKVFMVKPEEPFQPVKEATQL

Variants of: B1
Assay: raw area under fraction-flipped curve 0-4 h after induction (AUC4h, not background-subtracted), DNA-recorder readout of cleavage of the substrate (dimensionless); higher = more cleavage of the substrate by the protease variant
Conditions: temperature: 34 °C; time window: 0-4 h after rhamnose induction
Procedure: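 In vivo DNA recorder in E. coli TOP10(DE3) ΔrhaA at 34 °C. Each TEVp single-site mutant (parent TEVp 0) is paired with a single-site variant of the 7-mer TEVs (canonical ENLYFQ|S). The substrate sits between flexible linkers in a Bxb1-sfGFP-TEVs-SsrA fusion, so cleavage stabilises Bxb1 and speeds flipping of a recombination array, read by NGS. The value is the raw area under the fraction-flipped curve over 0-4 h after rhamnose induction (AUC4h), with ≥20 reads per time point. It is not background-subtracted; inactive controls average about 0.047.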
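Note: Bxb1 expression induced with 0.2% (w/v) L-rhamnose at OD600 near 0.5, cultures sampled hourly, flipped fraction per protease–substrate barcode pair counted by paired-end Illumina sequencing.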

Variant	area with substrate EALYFQS	area with substrate ECLYFQS	area with substrate EDLYFQS	area with substrate EHLYFQS	area with substrate EILYFQS	area with substrate ELLYFQS	area with substrate EPLYFQS	area with substrate EQLYFQS	area with substrate ERLYFQS	area with substrate ESLYFQS	area with substrate EVLYFQS	area with substrate EWLYFQS	area with substrate EELYFQS	area with substrate EFLYFQS	area with substrate EKLYFQS	area with substrate EMLYFQS	area with substrate ETLYFQS	area with substrate EYLYFQS	area with substrate EGLYFQS
V67Q	0.0842	0.0742	0.0932	0.0883	0.0694	0.0871	0.0839	0.0943	0.0703	0.0823	0.0747	0.0755							
S169G	0.0654	0.0712		0.0624		0.0427				0.0634	0.0586		0.0505	0.0615	0.0635	0.0613	0.0566	0.0503	
W199M	0.0796	0.0716	0.0948	0.0735	0.0523				0.0658	0.0584	0.0733	0.0588	0.072	0.0795	0.0675		0.0824		
G136S	0.131	0.0483			0.103	0.119	0.115	0.111		0.0964	0.079		0.128		0.102	0.127	0.0945		
V57A	0.0923	0.105	0.157	0.134	0.0907	0.102		0.0872	0.102	0.109		0.117		0.1	0.122		0.0776		0.0928
T129S	0.098	0.107		0.102	0.0853	0.0956	0.116	0.0996	0.119	0.124	0.0805	0.0583	0.12	0.0984	0.123	0.133	0.103		
T129Y	0.0818	0.0916	0.102		0.0683	0.0954	0.0936				0.103	0.0791			0.111	0.102	0.0974		0.0933
T31H	0.0972	0.0827	0.104	0.092		0.0626	0.136	0.105	0.0899	0.0893	0.104	0.0923	0.0949		0.12	0.105	0.0951		0.0804
T31L	0.124	0.123	0.157			0.0756	0.099	0.156	0.182	0.122	0.114		0.126					0.111	0.122
G35C	0.0692	0.0558	0.0527		0.0523		0.0613	0.0712	0.0492						0.0642				
P228E	0.122	0.0895			0.117	0.109			0.109				0.0925		0.108	0.0424		0.111	
K221M	0.0918		0.113	0.0991	0.0833	0.0648	0.0728	0.0848	0.0875	0.0989		0.0816	0.104		0.11	0.107		0.0921	
C20Y	0.0781	0.0637			0.0524	0.0576		0.072	0.0422	0.0624	0.0539		0.0807	0.0629		0.0632	0.0709	0.0601	
S17Y	0.119	0.116	0.114		0.101		0.113	0.117		0.103	0.0825	0.0813	0.106	0.0829	0.12	0.114	0.0971	0.113	0.105
F173W	0.102	0.0965	0.116		0.0912	0.0911	0.118	0.0989		0.0924	0.0881	0.0841	0.0989	0.108	0.104	0.098		0.103	
F173G	0.0461	0.0734			0.0871	0.0893			0.0664	0.0797						0.0752			0.071
H215M	0.0986	0.0874		0.103	0.0746	0.0958	0.124			0.0822	0.0726					0.107	0.0608		
V210T	0.0786	0.0708		0.0892	0.0599		0.116	0.0769		0.0839	0.0788	0.0909			0.0905		0.116		0.065
M122S	0.15	0.114				0.135		0.16		0.118	0.118	0.0983			0.132	0.173	0.139	0.15	
P14V	0.0932	0.0822		0.0924	0.1	0.0645	0.107	0.104	0.0862	0.0953	0.0902	0.104	0.11	0.089	0.0997	0.0916	0.101	0.0728	0.0994
K148Y	0.128	0.115			0.0672			0.13		0.0851			0.0968	0.106			0.12	0.111	0.112
E189P	0.0833	0.0329			0.0984	0.0725	0.0784		0.114	0.0874		0.0738		0.106	0.0813				
M219P	0.095	0.0518	0.0989	0.0849	0.0598	0.0689	0.0868	0.057	0.069	0.0703	0.0661	0.0845			0.0732	0.0635	0.0844		0.06
S158R	0.0489	0.0583		0.0583					0.0465		0.062					0.052		0.0322	0.0489
S158W	0.0496	0.0437	0.0473	0.0316	0.0589	0.0515		0.0507	0.0509	0.0547	0.0421	0.044	0.0492	0.0442	0.0472	0.0468	0.0445	0.057	0.0542
S182Q	0.0943	0.0774	0.119		0.1	0.126	0.116	0.0932		0.0805	0.0849	0.09	0.0858	0.107	0.0985	0.102		0.106	0.0476
K46D	0.0452	0.0517	0.0597			0.0394	0.0542		0.0806	0.0558	0.0599	0.042	0.0558	0.0676	0.0491	0.0506	0.0623		
